Data published in paper PMC4336329 (PLoS ONE, 2015).
The campaign covered roughly 310,000 compounds. About 14,000 (4.5%) showed an effect of 50% or more. The effect is printed as a negative number. This is one part of the list.

What follows are compounds tested against human ether-à-go-go-related gene (hERG) potassium channel (human, UniProt Q12809) (assay: primary screen, population patch clamp on CHO cells stably expressing hERG).
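Note: peak tail current of the secondary pulse compared with the same well before compound.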

human ether-à-go-go-related gene (hERG) potassium channel, sequence (Q12809 whole entry, looked up): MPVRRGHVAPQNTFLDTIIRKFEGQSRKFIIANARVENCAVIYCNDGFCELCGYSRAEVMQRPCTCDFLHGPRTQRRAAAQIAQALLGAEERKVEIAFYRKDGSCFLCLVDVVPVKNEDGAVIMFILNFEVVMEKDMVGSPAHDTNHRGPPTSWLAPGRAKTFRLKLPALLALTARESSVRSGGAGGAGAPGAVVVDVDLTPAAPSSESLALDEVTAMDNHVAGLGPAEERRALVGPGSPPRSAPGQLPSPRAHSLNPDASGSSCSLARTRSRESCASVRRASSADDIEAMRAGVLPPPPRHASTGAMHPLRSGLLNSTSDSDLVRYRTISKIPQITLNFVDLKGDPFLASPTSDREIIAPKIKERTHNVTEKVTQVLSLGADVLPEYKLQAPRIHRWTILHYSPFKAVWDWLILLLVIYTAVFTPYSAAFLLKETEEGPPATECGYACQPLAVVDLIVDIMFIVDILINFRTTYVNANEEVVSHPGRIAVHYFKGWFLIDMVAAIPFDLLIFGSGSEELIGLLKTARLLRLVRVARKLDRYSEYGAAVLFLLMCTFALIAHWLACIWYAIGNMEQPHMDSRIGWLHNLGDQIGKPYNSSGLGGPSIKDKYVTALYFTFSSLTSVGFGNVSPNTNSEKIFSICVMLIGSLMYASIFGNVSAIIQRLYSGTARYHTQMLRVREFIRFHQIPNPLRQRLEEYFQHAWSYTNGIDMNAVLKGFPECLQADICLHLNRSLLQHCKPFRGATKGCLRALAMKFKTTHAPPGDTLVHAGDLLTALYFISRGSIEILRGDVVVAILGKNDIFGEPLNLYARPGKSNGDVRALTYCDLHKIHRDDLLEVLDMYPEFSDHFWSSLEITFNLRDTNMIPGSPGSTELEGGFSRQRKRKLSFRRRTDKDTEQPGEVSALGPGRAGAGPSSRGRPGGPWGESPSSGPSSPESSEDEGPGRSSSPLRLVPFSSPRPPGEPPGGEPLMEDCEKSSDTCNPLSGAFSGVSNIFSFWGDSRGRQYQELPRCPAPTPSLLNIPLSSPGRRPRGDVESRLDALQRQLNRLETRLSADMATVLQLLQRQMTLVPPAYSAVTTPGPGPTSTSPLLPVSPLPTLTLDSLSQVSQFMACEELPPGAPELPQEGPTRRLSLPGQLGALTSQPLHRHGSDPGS

Row | Compound | hERG current change (%, negative = inhibition) at 10uM [%]
1 | CCCCN(C(=O)c1cccc(S(=O)(=O)N2CCOCC2)c1)c1c(N)n(CCC)c(=O)[nH]c1=O | 23.9
2 | Nc1nonc1-c1nc2ccccc2n1CC(=O)N/N=C\c1ccc(-c2ccc(Cl)cc2)o1 | 17.1
3 | O=C(CCSc1ccc(Cl)cc1)NC1CCCCC1 | -5.39
4 | Cc1ccc2nc(NC(=O)CN(C)S(=O)(=O)c3ccc(Br)s3)sc2c1 | 3.87
5 | Br.COc1ccccc1Nc1nc(-c2cccc([N+](=O)[O-])c2)cs1 | 2.72
6 | CN=C1S/C(=C\c2ccc(Cl)cc2)C(=O)N1C | 27
7 | C=CCOc1cc(OC)c(OC)c(OC)c1 | 8.69
8 | O=C(c1cc2ccccc2o1)N1CCCC1 | 10.8
9 | CC(C)CCn1c(S(=O)(=O)O)nc2ccccc21 | 13.2
10 | CC1CCc2sc3nc(N4CCN(CCO)CC4)n4ncnc4c3c2C1 (stereo not drawn) | -42
11 | Cc1c(C)c2c(c(C)c1O)CCC(C)(C(=O)O)O2 (stereo not drawn) | 12.4
12 | CC(C)c1cc(NCc2ccccn2)n2c(nc3ccccc32)c1C#N | 7.85
13 | Cc1ccc(CC2S/C(=C(/C#N)C(=O)N3CCOCC3)N(c3ccccc3)C2=O)cc1 (stereo not drawn) | -13.2
14 | CC1(c2ccc([N+](=O)[O-])cc2)NC(=O)N(CC(=O)Nc2cccnc2Cl)C1=O (stereo not drawn) | -18.7
15 | Cc1nc2ccccn2c1C(=O)C(=O)Nc1cc(F)ccc1F | 11.1
16 | Cc1nc(-c2ccc(Cl)cc2)sc1C1(C)CC(c2ccc([N+](=O)[O-])cc2)=NO1 (stereo not drawn) | 13.4
17 | COc1ccc(CC(=O)Oc2ccc(Cl)cc2Br)cc1S(=O)(=O)N1CCOCC1 | 6.13
18 | O=C(Oc1ccc(/C=N/NC(=O)c2ccccn2)cc1)c1cccc(F)c1 | 2.86
19 | CC(=O)N1c2ccc3ccccc3c2C2C=CCC2C1c1ccc(Br)cc1 (stereo not drawn) | 1.08
20 | COC(=O)c1sccc1NC(=O)c1ccc(Cl)cc1 | 15.4
21 | CC1(C)CC(=O)C2=C(C1)N(c1ccccc1)C(=O)CC2c1ccc(O)cc1 (stereo not drawn) | 10.8
22 | CN(CC(=O)Nc1ccc(N2CCOCC2)cc1)C(=O)CCNC(=O)c1ccccc1Cl | 17.8
23 | COc1ccc(Br)cc1CNC(=O)CN1C(=O)C(c2ccccc2)Oc2cccnc21 (stereo not drawn) | 6.14

Row | Compound | hERG current change (%, negative = inhibition) at 10uM [%]
24 | O=C(O)/C=C/C(=O)NCCNc1ncc(C(F)(F)F)cc1Cl | 25.7
25 | CCOC(=O)NC(=O)/C(N=Nc1ccc(C(F)(F)F)cc1)=C(\C)O | 9.83
26 | C/C(=N\Nc1ccc(C(F)(F)F)cc1[N+](=O)[O-])C1CC1 | -10.3
27 | CC(=O)c1nnn(-c2c(F)cccc2F)c1C | 3.16
28 | CCOC(=O)C1(Cc2ccc(OC)cc2)CCN(C(=O)CCn2cccn2)CC1 | -7.25
29 | CCOC(=O)c1c(C)n(C)c2ccc(OC)c(NC(=O)CN3CCN(Cc4ccccc4)CC3)c12 | -6.74
30 | CC1(C)CC(=O)C(C=NCCc2ccc(S(N)(=O)=O)cc2)=C(O)C1 | 5.46
31 | O=C(NCc1ccc(F)cc1)c1cnn2ccccc12 | -4.56
32 | Cc1cc(C)nc(NC(=O)c2cc(-c3ccc(C)s3)nc3ccccc23)c1 | 14.9
33 | CS(=O)(=O)c1ccc2nc(NC(=O)c3cc4ccccc4o3)sc2c1 | -10.1
34 | COc1ccc(C2=NS(=O)(=O)N(C)C(C(=O)Nc3ccc4c(c3)OCO4)=C2)cc1OC | 1.51
35 | CCCCCOc1ccc(NC(=O)C2OC3OC(C)(C)OC3C3OC(C)(C)OC23)cc1 (stereo not drawn) | -13.1
36 | O=[N+]([O-])c1ccc(CN2CC=C(c3ccccc3)CC2)cc1 | -21.5
37 | C=CCn1c(SCC(=O)NCc2ccc3c(c2)OCO3)nc2scc(-c3ccccc3)c2c1=O | -7
38 | O=C(Cc1ccc2c(c1)CCCC2)Nc1ccccc1Cl | 5.64
39 | CCOc1ccc(Cl)cc1S(=O)(=O)N1CCCC1 | -6.06
40 | COc1ccc(-n2c(=O)cc(N3CCN(c4ccccc4OC)CC3)[nH]c2=O)cc1 | -1.78
41 | COc1cccc(C(=O)NNS(=O)(=O)c2ccc(F)cc2)c1 | 9.31
42 | COCCN(C(=O)c1csnn1)C(C(=O)NC1CCCCC1)c1ccc(C)cc1 (stereo not drawn) | 9.88
43 | N#CCc1ccc(OC(=O)c2ccncc2)cc1 | 15.6
44 | Cc1nn(Cc2ccccc2Cl)c(C)c1C(=O)NC1=NCCS1 | 11.4
45 | N#C/C(=C\c1c[nH]c2ccccc12)C(=O)NC1CCCC1 | 0.831
46 | CC(=O)C1=C(C)NC(=O)NC1c1cccs1 (stereo not drawn) | 15.9

Row | Compound | hERG current change (%, negative = inhibition) at 10uM [%]
47 | Cc1ccc(C(=O)N2c3ccccc3N(Cc3ccccc3)C(=O)C2(C)C)cc1 | -1.87
48 | O=C(CCSc1ccccc1)NCc1cccnc1 | -2.31
49 | COCC1CCN(C(=O)c2ccc3oc(Cc4ccc(Cl)cc4)nc3c2)C1 (stereo not drawn) | -14.1
50 | CSCCC(NS(=O)(=O)c1ccccc1F)C(=O)N1CCCCCC1 (stereo not drawn) | -2.21
51 | Cc1nc2c(C)cccc2cc1C(=O)N/N=C/c1cccnc1 | -1.69
52 | CCCn1nnnc1NCc1ccc(Cl)cc1Cl | 4.68
53 | O=C(O)C1CCN(C(=O)c2csc(-c3ccc4c(c3)CCO4)n2)CC1 | -1.32
54 | COCCn1c(=O)[nH]c2cc(C(=O)NCCN3CCN(c4ccccc4)CC3)ccc2c1=O | 1.21
55 | Cc1c(CCC(=O)NCCCn2ccnc2)c(=O)oc2cc3occ(C(C)(C)C)c3cc12 | -77.7
56 | Oc1ccc(Cl)c(Cl)c1Cl | 12.8
57 | COc1ccc([C@H]2CC(=O)C=C(c3ccc4c(c3)sc3ccccc34)C2)cc1 | 13.4
58 | NC(=O)c1ccc(NC(=O)CSc2nnc(-c3ccccn3)n2N)cc1 | 17.1
59 | Cn1c(=O)c2[nH]c(NCC3CCCO3)nc2n(-c2ccccc2)c1=O (stereo not drawn) | -4.21
60 | CC(C)Cc1ccc(C(C)C(=N)N)cc1.Cl (stereo not drawn) | -6.14
61 | CCN1CC(C)C(O)(c2ccccc2)CC1C (stereo not drawn) | 8.36
62 | CN1N=C2c3ccccc3CCC2C1c1ccc(C(F)(F)F)cc1 (stereo not drawn) | 17
63 | Cc1cc2c(s1)c1cnn(Cc3ccccc3F)c(=O)c1n2C | 12.5
64 | Cn1c(CCCOc2ccc(Cl)cc2Cl)nnc1SCC(=O)Nc1cccc(F)c1 | -3.24
65 | Cc1cccc(NC(=O)Cc2ccc(Br)cc2)n1 | 1.47
66 | CC(C)CCN1CCN(Cc2ccc(C(F)(F)F)cc2)CC1CCO (stereo not drawn) | -58.1
67 | Cc1ccc(CNC(=O)C2CC(=O)N(C3CCCCCC3)C2)cc1 (stereo not drawn) | 4.25
68 | S=C(NNc1ccnc2cc(Cl)ccc12)Nc1ccc(Cl)cc1Cl | 17.5
69 | Cc1cc(C)cc(N(CCC#N)C(=O)COC(=O)c2ccccc2SCC(=O)N2CCCC2)c1 | -19.4

Row | Compound | hERG current change (%, negative = inhibition) at 10uM [%]
70 | NS(=O)(=O)c1ccc(NC(=S)NC2CCCCC2)cc1 | 14.7
71 | Cc1cs/c(=N/C(=S)Nc2ccccc2)n1C | 34.9
72 | Cc1ccc(CSc2nnc(-c3cccc(S(=O)(=O)N4CCOCC4)c3)n2CC(C)C)cc1 | -29.5
73 | CN(C)CCNC(=O)CN1C(=O)COc2ccc(C(C)(C)C)cc21 | -2.14
74 | CC(C)(C)Sc1nc(O)cc(=O)[nH]1 | -14.2
75 | O=C(COc1ccc(-c2ccccc2)cc1)NNC(=O)Nc1ccc(F)cc1F | 20.7
76 | O=C(NCc1csc(-c2cccs2)n1)C1CCCCC1 | -14.3
77 | O=C(O)c1ccc(NS(=O)(=O)c2ccc(N3CCCC3)c([N+](=O)[O-])c2)cc1 | 11.3
78 | Cc1ccc2nc(SCC(=O)Nc3c(F)cccc3F)[nH]c2c1 | -12.6
79 | CN(C)C(N)=NCCC[C@H](N)C(=O)O.Cl | 9.67
80 | CN(C)C=Nc1nc2ccccc2nc1N1CCCC1 | 30.4
81 | COc1ccc(Br)c(OC)c1C(=O)NC(=O)Nc1c(F)cccc1F | 9.25
82 | O=Cc1ccc(C(=O)OCC(=O)NCCC2=CCCCC2)cc1 | 5.53
83 | O=C1CCCC2=C1C1(CCCCC1)N=C(Nc1nc3ccccc3o1)N2 | 1.98
84 | Cc1ccc2[nH]cc(C(=O)CN3CCN(C)CC3)c2c1 | -8.16
85 | CCc1cc(=O)oc2c3c(cc(OCC(=O)NCc4ccco4)c12)OC(C)(C)CC3 | -10.2
86 | Cc1oc(-c2cccc(Cl)c2)nc1CS(=O)(=O)CC(=O)NCCN1CCCC1 | -0.675
87 | CSc1ccc(S(=O)(=O)NCC(=O)OCC(=O)N(C)Cc2ccccc2)cc1[N+](=O)[O-] | -15.2
88 | CCOc1ccc(NS(=O)(=O)c2ccc(C(=O)NCc3ccccn3)cc2)cc1 | -15.7
89 | CCOC(=O)c1[nH]c2ccc(F)cc2c1N=C(C)N(CC)CC | -55.4
90 | O=Cc1c(Cl)cccc1Cl | 13.9
